# Assay results from PubChem BioAssay.
# Inconclusive results, whose numbers are uncertain, are shown with a selection of clear calls. A potency beside an inconclusive call is a rough fit, not a confirmed value. The source made the active and inactive calls. No cut-off is given here; in the data, nearly all actives have AC50 up to about 30 µM.
# Assay: SU-DIPG-VI glioma cell viability, MIPE4.0 library, CellTiter-Glo luminescence, qHTS (AID 1347066);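 note: cells exposed to compound for 48 hours before readout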
# Conditions: CellTiter-Glo ATP luminescence
SMILES,outcome,AC50
CO[C@@H]1C(N(C)C(=O)c2ccccc2)C[C@H]2O[C@]1(C)n1c3ccccc3c3c4c(c5c6ccccc6n2c5c31)C(=O)NC4=O (stereo partly specified),inactive,–
CN(C)c1ccc(-c2nc3ncc(Cl)c(N4CCN(CC(=O)Nc5nccs5)CC4)c3[nH]2)cc1,–,inconclusive: 1.18 µM [cytotoxic]
O=C(CCCCCCC(=O)Nc1ccc([C@H]2O[C@@H](CSc3nc(-c4ccccc4)c(-c4ccccc4)o3)C[C@@H](c3ccc(CO)cc3)O2)cc1)NO,–,inconclusive: 11.8 µM [cytotoxic]
CC(C)C[C@H](NC(=O)CNC(=O)c1cc(Cl)ccc1Cl)B1OC(=O)CC(CC(=O)O)(C(=O)O)O1 (stereo partly specified),–,inconclusive: 0.166 µM [cytotoxic]
CO[C@H]1C[C@@H]2CC[C@@H](C)[C@@](O)(O2)C(=O)C(=O)N2CCCC[C@H]2C(=O)O[C@H]([C@H](C)C[C@@H]2CC[C@@H](OC(=O)C(C)(CO)CO)[C@H](OC)C2)CC(=O)[C@H](C)/C=C(\C)[C@@H](O)[C@@H](OC)C(=O)[C@H](C)C[C@H](C)/C=C/C=C/C=C/1C,–,active: 9.35 µM
CC[C@H](CC#N)OC(=O)N[C@@H](C)c1cccc(NC(=O)Nc2ccc(-c3cnco3)c(OC)c2)c1,–,inconclusive: 13.2 µM [cytotoxic]
CCNC(=O)Nc1ccc(-c2nc3c(c(N4CCOC[C@@H]4C)n2)CCN(C2COC2)C3)cc1,–,inconclusive: 7.43 µM [cytotoxic]
CC(C)(O)CC(=O)NCCn1ccc2ncnc(Nc3ccc(Oc4cccc(C(F)(F)F)c4)c(Cl)c3)c21,–,inconclusive: 29.6 µM [cytotoxic]
CN(C)c1ccc(Nc2nc(N)n(C(=O)c3c(F)cccc3F)n2)cc1,–,inconclusive: 33.2 µM [cytotoxic]
CCN(CCO)CCCOc1ccc2c(Nc3cc(CC(=O)Nc4cccc(F)c4)[nH]n3)ncnc2c1,inactive,–
O=C(Nc1cccc(Cl)c1)Nc1ncc(CCNc2ncnc3ccsc23)s1,–,inconclusive: 0.372 µM [cytotoxic]
Cc1cccc(-c2[nH]c(C(C)(C)C)nc2-c2ccc3c(c2)OCO3)n1,–,inconclusive: 0.59 µM [cytotoxic]
CC[C@@]1(O)C[C@H](O[C@H]2C[C@H](N(C)C)[C@H](O[C@H]3C[C@H](O)[C@H](O[C@H]4CCC(=O)[C@H](C)O4)[C@H](C)O3)[C@H](C)O2)c2c(cc3c(c2O)C(=O)c2c(O)cccc2C3=O)[C@H]1C(=O)OC,–,inconclusive: 18.7 µM [cytotoxic]
CC(=O)SCC(Cc1ccccc1)C(=O)NCC(=O)OCc1ccccc1 (stereo unspecified),–,inconclusive: 6.62 µM [cytotoxic]
COC(=O)Nc1nc2ccc(C(=O)c3ccccc3)cc2[nH]1,inactive,–
C=C1C(=O)OC2/C=C(/C)CC/C=C(/C)CCC12 (stereo unspecified),–,inconclusive: 16.6 µM [cytotoxic]
CC(C)(C)NCC(O)c1ccc(O)c(CO)c1 (stereo unspecified),inactive,–
O=C(O)c1ccc2c(c1)nc(Nc1cccc(Cl)c1)c1ccncc12,–,inconclusive: 5.26 µM [cytotoxic]

SMILES,outcome,AC50
CS(=O)(=O)N1CCc2c(-c3cnc(N)nc3)nc(N3CCOCC3)nc21,–,inconclusive: 0.235 µM [cytotoxic]
COc1cc2ncnc(Nc3cccc(Cl)c3)c2cc1OC,–,inconclusive: 37.2 µM [cytotoxic]
CC1(C)CCC2=C(O1)c1ccccc1C(=O)C2=O,–,active: 20.9 µM
CCCCc1ccc2nc(NC(=O)OC)[nH]c2c1,–,inconclusive: 4.18 µM [cytotoxic]
CN1c2ccccc2C(=O)N2CCc3c([nH]c4ccccc34)C21 (stereo unspecified),inactive,–
CN(C)c1nc(N(C)C)nc(N(C)C)n1,–,inconclusive: 0.0833 µM [cytotoxic]
O=C(NCCCNc1nc(Nc2cccc(NC(=O)N3CCCC3)c2)ncc1I)c1cccs1,–,active: 20.9 µM
CCC(C)SSc1ncc[nH]1 (stereo unspecified),–,active: 26.4 µM
O=C1[C@H](Cc2ccc(O)cc2)N2C(=O)CCN(C(=O)NCc3ccccc3)[C@H]2CN1Cc1cccc2ccccc12,–,inconclusive: 3.32 µM [cytotoxic]
Cc1c[nH]c(/C=C2\C(=O)Nc3ccccc32)c1CCC(=O)O,inactive,–
Clc1ccc(COC(Cn2ccnc2)c2ccc(Cl)cc2Cl)c(Cl)c1 (stereo unspecified),–,inconclusive: 20.9 µM [cytotoxic]
CCCCc1nc2cc(/C=C/C(=O)NO)ccc2n1CCN(CC)CC,–,inconclusive: 0.0118 µM [cytotoxic]
COc1ccc(-c2oc3c(CC=C(C)C)c(O)cc(O)c3c(=O)c2O)cc1,–,inconclusive: 1.05 µM [cytotoxic]
COc1cc(F)c(F)c(Nc2ccc(I)cc2F)c1NS(=O)(=O)C1(C[C@H](O)CO)CC1,–,inconclusive: 18.7 µM [cytotoxic]
CN1CCC(=C2c3ccccc3CC(=O)c3sccc32)CC1,inactive,–
OC(c1cc(C(F)(F)F)nc2c(C(F)(F)F)cccc12)C1CCCCN1 (stereo unspecified),–,inconclusive: 26.4 µM [cytotoxic]
CN(C)C/C=C/C(=O)Nc1cc2c(Nc3ccc(F)c(Cl)c3)ncnc2cc1O[C@H]1CCOC1,–,active: 29.6 µM
Cc1cc(C(=O)NOCCO)c(Nc2ccc(I)cc2F)n(C)c1=O,–,inconclusive: 0.00105 µM [cytotoxic]
